Results as given in PubChem BioAssay AID485344 (National Center for Advancing Translational Sciences (NCATS), 2010).
The campaign covered roughly 340,000 compounds. About 6,900 (2%) were called active. Cut-off read from the data, not from the text of the source: active = inhibition above about 30%; inactive = below that, where a call was filed. Only a part is listed here, and it is no random draw. Entries without a call were filed so in the source.

molecular target: D(2) dopamine receptor (Homo sapiens) (UniProt P14416); assay: HTS Assay for Allosteric Antagonists of the Human D2 Dopamine Receptor: Primary Screen for Antagonists; settings: HEK293 TREx D2 cells, calcium flux, dopamine EC80; at 10 µM; stronger effect = higher value; note: 0% is about no effect
Procedure, shortened: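 Inhibition of EC80 dopamine-driven calcium flux, recorded kinetically, defines activity here; cells are a tetracycline-induced HEK293 T-REx line expressing force-coupled D2.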

Sequence of UniProt P14416 (P14416 whole entry, looked up): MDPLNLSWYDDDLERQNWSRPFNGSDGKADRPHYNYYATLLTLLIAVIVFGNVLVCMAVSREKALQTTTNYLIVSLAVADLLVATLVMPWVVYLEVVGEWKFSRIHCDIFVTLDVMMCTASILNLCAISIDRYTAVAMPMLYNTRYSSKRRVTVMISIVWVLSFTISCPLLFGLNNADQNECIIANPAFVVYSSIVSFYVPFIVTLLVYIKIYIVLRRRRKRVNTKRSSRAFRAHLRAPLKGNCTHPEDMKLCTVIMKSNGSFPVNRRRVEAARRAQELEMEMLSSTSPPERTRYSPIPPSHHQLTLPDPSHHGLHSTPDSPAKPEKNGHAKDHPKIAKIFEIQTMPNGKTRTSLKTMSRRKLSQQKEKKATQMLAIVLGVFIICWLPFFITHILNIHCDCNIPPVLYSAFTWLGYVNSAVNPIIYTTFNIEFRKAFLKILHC

Row | Structure (SMILES) | inhibition
1 | CN1CCN(c2ccc(Cl)cc2NC(=O)CC2OC(=O)c3ccccc32)CC1 (stereo unspecified) | active: 38.5%
2 | Cc1ccn(CC(C)C(=O)O)n1 (stereo unspecified) | active: 33.9%
3 | O=C(NC1CC(=O)N(c2ccc(F)cc2)C1)C1CCCCC1 (stereo unspecified) | 8.38%
4 | CCOc1cc(/C=C(\C#N)C(=O)Nc2ccccc2C)ccc1OCc1cc(=O)n2nc(CC)sc2n1 | 1.23%
5 | CCCCCn1c(=N)c(S(=O)(=O)c2ccccc2)cc2c(=O)n3cccc(C)c3nc21 | -9.15%
6 | Cc1cc(Nc2ccc(C(C)C)cc2)nc(-n2nc(C)cc2C)n1 | -7.09%
7 | COc1ccc(NC(=O)CN(C)S(=O)(=O)c2ccc3c(c2)CCCN3C(C)=O)cc1Cl | -14.7%
8 | CC(C)Oc1cccc(C(=O)Nc2ccc(-c3nc4cc(Cl)cc(Cl)c4o3)cc2)c1 | 4.03%
9 | C=CCN(c1ccccc1)S(=O)(=O)c1cccc(C(=O)NC2CCN(Cc3ccccc3)CC2)c1 | active: 66.4%
10 | Cc1nnc(SCc2ccccc2Cl)c2cc3occc3n12 | 14.2%
11 | Cc1cccc2sc(N(Cc3cccnc3)C(=O)Cc3ccccc3)nc12 | -26.9%
12 | Cc1ccc(OCC(O)CN2CCN(CC(O)COc3ccc(C)cc3Cl)CC2)c(Cl)c1 (stereo unspecified) | active: 78.4%
13 | Cc1ccc(NC(=O)CSc2nc(-c3cccs3)cc(C(F)(F)F)n2)cc1C | 10.5%
14 | Oc1c(CN2CCN(c3ccccc3)CC2)cc(Br)c2cccnc12 | active: 59.3%
15 | COc1cc(-c2noc(-c3ccc(NC4CCCCC4)c([N+](=O)[O-])c3)n2)cc(OC)c1OC | 23%
16 | CSc1cccc(N2C(=O)N(CC(=O)NCc3ccccc3Cl)c3ccccc3S2(=O)=O)c1 | 1.86%
17 | COc1ccccc1-n1ncc2c(=O)[nH]c(SCC(=O)Nc3cccc(F)c3)nc21 | -7.97%
18 | CC(C)CCOc1ccc(Oc2nc(N(C)C)nc(N(C)C)n2)nn1 | -7.7%
19 | CCOc1ccccc1N(C)C(=O)Cn1cnc2onc(-c3ccc(F)cc3)c2c1=O | 9.7%
20 | Cc1ccc(NC(=O)C(Cc2ccccc2)n2cccc2)c(C)c1 (stereo unspecified) | 4.9%
21 | Cc1cc(=O)n2c(C(=O)Nc3ccc(F)c(Cl)c3)c(C(=O)Nc3cccc(C)c3C)sc2n1 | 10.2%
22 | COc1ccc(CNC(=O)c2ccc3c(c2)NC(=O)C(CS(=O)(=O)Cc2ccccc2Cl)N3)cc1 (stereo unspecified) | 8.49%
23 | O=C(c1ccc2c(c1)N(Cc1cccc(Cl)c1)C(=O)c1ccccc1S2(=O)=O)N1CCC(Cc2ccccc2)CC1 | -10.2%
24 | CCOc1ccccc1CNC(=O)CN1C(=O)CCn2nc(-c3cn(C)c4ccccc34)cc21 | 1.74%
25 | Cc1nc2ccc(S(=O)(=O)N(CC(=O)Nc3ccc(Cl)cc3)Cc3ccccc3)cc2s1 | 5.68%
26 | COc1cc(Cl)c(C)cc1Nc1c2c(nc3ccccc13)CCC2 | -4.09%
